Measurements: paper PMC4336329 (PLoS ONE, 2015)
The campaign covered roughly 310,000 compounds. About 2,200 (0.71%) showed an effect of 50% or more. Effects have a minus sign here. This is one part of the list.

What follows are molecules tested against human ether-à-go-go-related gene (hERG) potassium channel (human, UniProt Q12809) (assay: primary screen, population patch clamp on CHO cells stably expressing hERG).
human ether-à-go-go-related gene (hERG) potassium channel, sequence (Q12809 whole entry, looked up): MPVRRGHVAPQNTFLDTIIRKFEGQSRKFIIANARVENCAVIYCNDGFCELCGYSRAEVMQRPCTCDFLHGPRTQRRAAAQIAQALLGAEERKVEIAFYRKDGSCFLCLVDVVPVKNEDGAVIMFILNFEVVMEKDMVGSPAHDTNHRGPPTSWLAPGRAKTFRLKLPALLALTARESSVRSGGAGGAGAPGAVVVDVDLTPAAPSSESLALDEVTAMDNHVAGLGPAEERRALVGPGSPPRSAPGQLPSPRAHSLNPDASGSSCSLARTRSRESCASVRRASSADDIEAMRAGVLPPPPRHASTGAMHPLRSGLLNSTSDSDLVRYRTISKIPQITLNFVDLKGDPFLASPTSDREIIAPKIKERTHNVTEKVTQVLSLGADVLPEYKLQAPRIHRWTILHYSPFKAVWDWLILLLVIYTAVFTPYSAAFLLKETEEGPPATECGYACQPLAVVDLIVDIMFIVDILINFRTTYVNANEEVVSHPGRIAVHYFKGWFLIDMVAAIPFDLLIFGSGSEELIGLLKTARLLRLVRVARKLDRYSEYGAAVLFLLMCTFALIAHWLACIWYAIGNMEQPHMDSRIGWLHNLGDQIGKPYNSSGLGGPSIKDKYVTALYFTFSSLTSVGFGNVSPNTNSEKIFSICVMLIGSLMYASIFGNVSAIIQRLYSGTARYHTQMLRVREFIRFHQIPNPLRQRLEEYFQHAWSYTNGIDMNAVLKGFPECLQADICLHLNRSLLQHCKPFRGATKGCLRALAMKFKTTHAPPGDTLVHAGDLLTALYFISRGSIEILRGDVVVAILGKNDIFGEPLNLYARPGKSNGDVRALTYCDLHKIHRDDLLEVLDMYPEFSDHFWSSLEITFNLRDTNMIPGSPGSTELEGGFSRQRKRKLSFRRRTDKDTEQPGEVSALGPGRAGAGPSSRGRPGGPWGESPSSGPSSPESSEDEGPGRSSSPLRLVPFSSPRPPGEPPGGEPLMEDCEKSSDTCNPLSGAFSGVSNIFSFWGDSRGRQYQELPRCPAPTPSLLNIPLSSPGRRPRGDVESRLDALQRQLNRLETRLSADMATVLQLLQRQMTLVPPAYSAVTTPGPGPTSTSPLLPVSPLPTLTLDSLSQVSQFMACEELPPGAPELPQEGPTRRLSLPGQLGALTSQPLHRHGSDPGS

First: COc1ccc(OC)c(NC(=O)CC2(CC(=O)O)CCCC2)c1
Second: COc1ccc(CNC(=O)C2CCN(S(=O)(=O)N3CCCC3)CC2)cc1
The “hERG current change (%, negative = inhibition) at 1uM” value of the first is lower: 5.96% for the first, 17.7% for the second.

Going from `CCOC(=O)N1CCC(NS(=O)(=O)c2cc3c(cc2C)NC(=O)CO3)CC1` to `CCS(=O)(=O)N1Cc2ccccc2CC1C(=O)Nc1cc(S(C)(=O)=O)ccc1Cl` (stereo not drawn), the “hERG current change (%, negative = inhibition) at 1uM” value falls from 6.3% to 2.22%.

Going from `CCOCCCn1c(=NC(=O)c2cccs2)c(C#N)cc2c(=O)n3cccc(C)c3nc21` to `Cc1ccc(-c2cc(C(=O)NCc3ccccn3)c3ccccc3n2)cc1C`, the “hERG current change (%, negative = inhibition) at 1uM” value rises from -53.9% to 0.464%.

Compared with `Cc1csc(=O)n1CCC(=O)OCC(=O)Nc1ccc(S(N)(=O)=O)cc1`, `Cc1ccc(S(=O)(=O)CCC(=O)Nc2ccc(S(=O)(=O)N(C)C)cc2)cc1` is lower in “hERG current change (%, negative = inhibition) at 1uM” value: 15.4% for the first, 9.29% for the second.

Going from `O=C(NCCN1CCN(C(=O)c2ccc(Br)cc2)CC1)c1ccc(Br)cc1` to `O=C(CN1C(=O)c2ccccc2C1=O)NCC(=O)OCC(=O)c1ccc(Br)cc1`, the “hERG current change (%, negative = inhibition) at 1uM” value rises from -63.5% to 7.31%.

First: O=C(NCc1cccnc1)/C(=C\c1ccc(-c2cccc(Cl)c2)o1)S(=O)(=O)c1ccccc1
Second: CC1=NN(c2ccccc2)C(=O)/C1=C\c1ccc(Oc2ccc([N+](=O)[O-])cc2[N+](=O)[O-])cc1
The “hERG current change (%, negative = inhibition) at 1uM” value of the first is lower: 5.61% for the first, 14.7% for the second.

Going from `CC1(C)CNC(=O)C=C(c2ccccc2)C1` to `Cc1cc(=O)n(-c2ccc3ccccc3n2)[nH]1`, the “hERG current change (%, negative = inhibition) at 1uM” value falls from 13.8% to -1.93%.

First: COc1cc2ccccc2nn1
Second: Cc1ccccc1CSc1nnc(CCCCCNC(=O)OC(C)(C)C)o1
The “hERG current change (%, negative = inhibition) at 1uM” value of the first is higher: 12.7% for the first, 10.8% for the second.

First: CC(=O)N1c2ccc(C)cc2C(c2ccccc2)CC1C (stereo not drawn)
Second: CC(=O)N(NC(=O)c1ccc(C)cc1)C1CC(=O)N(c2ccccc2Cl)C1=O (stereo not drawn)
The “hERG current change (%, negative = inhibition) at 1uM” value of the first is lower: -0.117% for the first, 0.67% for the second.

Going from `Cc1nnc(NC(=O)CSc2nnc(NC(=O)C(C)(C)C)s2)s1` to `O=C(Nc1ccccc1C(=O)O)c1ccc(Br)o1`, the “hERG current change (%, negative = inhibition) at 1uM” value falls from 19.4% to 14.5%.

Going from `O=C(COC(=O)CCC(=O)c1cccs1)NC1CC1` to `O=C(COC(=O)C(O)C(O)C(=O)OCC(=O)c1ccc(C(F)(F)F)cc1)c1ccc(C(F)(F)F)cc1` (stereo not drawn), the “hERG current change (%, negative = inhibition) at 1uM” value rises from 11.5% to 12.3%.

Going from `CCOC(=O)c1ccc2nc(C(F)(F)F)[nH]c(=O)c2c1` to `O=C(O)c1cccc(Nc2ccncc2[N+](=O)[O-])c1`, the “hERG current change (%, negative = inhibition) at 1uM” value rises from 5.59% to 12.3%.
